Publication PMC6919601, “Identification of Plasmodium dipeptidyl aminopeptidase allosteric inhibitors by high throughput screening” (PLoS ONE, 2019)
The whole screen tested about 110,000 compounds, of which about 230 (0.21%) showed an effect of 50% or more. The list shows a part of the results.

The compounds below were run against DPAP1 (Plasmodium falciparum, UniProt Q8IIJ9) (assay: primary screen, percent inhibition; read by cleavage of a fluorogenic dipeptide substrate; higher = more effect of the substance).
Parameters: species or system P. falciparum D10 trophozoite lysates; single well
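Note: 30 min substrate incubation versus DMSO and 10 µM JCP410 controls.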

Sequence of DPAP1 (Q8IIJ9 whole entry, looked up): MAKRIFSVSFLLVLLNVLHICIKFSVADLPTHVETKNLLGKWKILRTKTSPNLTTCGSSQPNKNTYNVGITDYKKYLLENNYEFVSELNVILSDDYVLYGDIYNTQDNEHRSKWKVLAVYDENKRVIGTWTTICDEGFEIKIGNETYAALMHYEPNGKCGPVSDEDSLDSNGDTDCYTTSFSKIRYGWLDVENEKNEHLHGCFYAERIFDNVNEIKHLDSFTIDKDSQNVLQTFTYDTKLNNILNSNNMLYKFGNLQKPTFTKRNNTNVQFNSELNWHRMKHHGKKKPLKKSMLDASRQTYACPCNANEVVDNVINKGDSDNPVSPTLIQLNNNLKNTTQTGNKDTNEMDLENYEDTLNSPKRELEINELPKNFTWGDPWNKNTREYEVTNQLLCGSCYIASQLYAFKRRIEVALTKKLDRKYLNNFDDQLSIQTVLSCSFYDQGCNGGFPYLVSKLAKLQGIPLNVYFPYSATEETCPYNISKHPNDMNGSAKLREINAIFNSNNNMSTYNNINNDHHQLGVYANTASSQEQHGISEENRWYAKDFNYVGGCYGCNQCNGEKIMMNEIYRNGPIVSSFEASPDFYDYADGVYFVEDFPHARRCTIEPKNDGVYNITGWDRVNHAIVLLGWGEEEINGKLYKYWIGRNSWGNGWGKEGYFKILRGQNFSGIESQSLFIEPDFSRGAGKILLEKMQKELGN

Row | SMILES | % Inhibition @ 10 uM
1 | COc1ccccc1CNC(=O)c1cc2c(s1)-c1ccccc1S(=O)(=O)C2 | 4.4%
2 | Cc1c(CNCCCc2ccccc2)c(C(=O)O)c(C)n1Cc1c(F)cccc1Cl | -1.92%
3 | NC(=O)C1CCN(C(=O)CSc2nc3c(c(-c4ccccc4)n2)CCCC3)CC1 | 5.66%
4 | CC1CCC(N2CCN(C/C=C/c3ccccc3)CC2)CC1 (centres unmarked) | 1.37%
5 | Clc1cccc(OCCCCCN2CCOCC2)c1 | -2.54%
6 | COc1ccc(C(=O)NCc2cn3c(C)csc3n2)cc1OC | -0.72%
7 | CCC[C@H](NC(=O)C1(NC(=O)c2ccc(OC(F)(F)F)cc2)CCCCC1)C(=O)c1nnc(-c2cccc(OC)c2)o1 | 1.7%
8 | COc1ccc(NC(=O)/C=C/c2ccccc2Cl)cc1 | -2.34%
9 | C=CCn1c2ccccc2n2cc(-c3ccccc3)nc12 | -2.2%
10 | CN1C(=O)C(=Cc2c[nH]c3ccccc23)C(=O)N(C)C1=O | 0.343%
11 | N#Cc1c(NC(=O)CCCCC(=O)Nc2sc3c(c2C#N)CCC3)sc2c1CCC2 | -0.053%
12 | O=C1OC(c2ccc(Cl)cc2Cl)=N/C1=C\c1ccc(F)cc1 | -0.972%
13 | C=CCNC(=O)c1c(NC(=O)c2ccccc2F)sc2c1CCCCC2 | 5.03%
14 | Cc1ccnc(N2C(=O)c3ccccc3C2O)c1 (centres unmarked) | 0.708%
15 | O=C(CCc1nnc2n(CCc3ccccc3)c(=O)c3ccccc3n12)NCCC1=CCCCC1 | -0.692%
16 | Cc1cc(Oc2coc3cc(O)ccc3c2=O)cc(C)c1Cl | 0.709%
17 | CCCCN1C(=O)c2ccccc2S1(=O)=O | -5.08%
18 | CC1(C)CC(NC(=O)C23CCC(C)(c4nc5ccccc5nc42)C3(C)C)CC(C)(C)N1 (centres unmarked) | 3.24%
19 | COc1cccc(NC(=O)COc2ccccc2C)c1 | 0.709%
20 | COc1cccc(CNC(=O)C(C)n2nc(C)c3sc4ccccc4c3c2=O)c1 (centres unmarked) | -1.6%
21 | O=C(c1ccc(CN(c2ccccc2)S(=O)(=O)c2ccccc2)cc1)N1CCOCC1 | -0.992%
22 | Cc1sc2c3ccsc3ccc2[n+]1C | -4.84%
23 | CC1CC(C)CN(CCCNC(=O)CCCc2cn(C)c3ccccc23)C1 (centres unmarked) | 1.51%
24 | CSc1ncc(C(=O)NCCc2ccc(Cl)cc2)c(C)n1 | 4.94%
25 | O=C(CCN1CCN(C2C3CC4CC(C3)CC2C4)CC1)N1c2ccccc2Sc2ccc(Cl)cc21 (centres unmarked) | -1.15%

Row | SMILES | % Inhibition @ 10 uM
26 | CC1=C(C(=O)OCCC(C)C)C(c2ccc(F)cc2)NC(=O)N1 (centres unmarked) | 5.92%
27 | CCOC(=O)c1c(NC(=O)c2nn(C)cc2Br)sc(C)c1C | 3.31%
28 | Cc1onc(-c2ccccc2)c1C(=O)NCCCCc1ccccc1 | -3.63%
29 | CCc1nn2c(=O)cc(COc3ccc(/C=C(\C#N)C(=O)NCc4ccccc4)cc3)nc2s1 | -0.495%
30 | CCN(Cc1ccccc1)S(=O)(=O)c1cc(-c2cc(C)no2)ccc1C | -5.09%
31 | CC1=C(C(=O)Nc2ccc(C)cn2)C(c2ccccn2)C2=C(O)CC(C)(C)CC2=N1 (centres unmarked) | -2.64%
32 | Cc1ccc(N2C(=O)C3C4c5ccccc5C(C(C)O)(c5ccccc54)C3C2=O)cc1 (centres unmarked) | 53.4%
33 | Nc1ncc(Br)cc1S(=O)(=O)NCCc1ccc(Cl)cc1 | 0.655%
34 | CC(=O)c1c(C)nc2c(c1-c1ccc(Br)cc1)C(=O)c1ccccc1-2 | 3.53%
35 | CC(NC(=O)C(C)n1ncn2cccc2c1=O)c1ccccc1 (centres unmarked) | -5.95%
36 | COC1CC(C)(C)Oc2ccc3oc(C(=O)N4CCc5ccccc5C4)c(C)c3c21 (centres unmarked) | -5.15%
37 | O=C(O)C1CCN(C2CC(=O)N(c3cccc(Br)c3)C2=O)CC1 (centres unmarked) | -0.63%
38 | Clc1cccc(CN2CCN(c3ncccn3)CC2)c1 | 1.63%
39 | Cc1nc2ccccn2c(=O)c1Oc1ccccc1 | 3.78%
40 | Cc1ccc(NCN2C(=O)C3C4C=CC(C4)C3C2=O)cc1C (centres unmarked) | 0.751%
41 | O=C1c2cccc([N+](=O)[O-])c2C(=O)N1c1ccncc1 | -3.77%
42 | CCOC(=O)c1[nH]c(C)c(C(C)=O)c1C | 3.32%
43 | Cc1ccc2[nH]c(SCC(=O)Nc3nonc3-n3cccc3)nc2c1 | 1.32%
44 | COc1ccc(-c2cc(C(=O)O)c3ccccc3n2)cc1OC | -2.85%
45 | Clc1cccc(OCCCCN2CCCCC2)c1 | 3%
46 | CC(=O)Nc1ccc(C(=O)N2CCCC2)cc1 | 4.04%
47 | Cc1ccccc1C(=O)Nc1ccc(S(=O)(=O)N2CCCCCC2)cc1 | 6.65%
48 | COc1ccc2[nH]cc(CC/N=C3/SCC(=O)N3C)c2c1 | 6.12%
49 | CCCN1C(=O)c2cc(C(=O)NCCCOC(C)C)ccc2C1O (centres unmarked) | 4.41%
50 | O=C(c1ccco1)N(C1CCCCC1)C1CCCCC1 | -2.22%
